Data on seven sequences can be found in paper PMC4081100.

This is a selection; strong and weak results do not stand in their true shares. For some of these results: At the low end of the ranking the order means little. The list shows a part of the results. For some of these results: Construct or isoform of the protein are uncertain.

Common to all, as to assay: universal protein binding microarray (PBM)
Common to all, as to settings: transcription factors of Arabidopsis thaliana; high values mean tight binding; most listed sequences are background and not binding sites; double strand, one strand shown

The target in one assay is GST-NTL6(1-168) (UniProt Q9SCK6).
The target in the next assay is T1, GST-ANAC019 NAC domain (UniProt Q9C932).
T1 sequence: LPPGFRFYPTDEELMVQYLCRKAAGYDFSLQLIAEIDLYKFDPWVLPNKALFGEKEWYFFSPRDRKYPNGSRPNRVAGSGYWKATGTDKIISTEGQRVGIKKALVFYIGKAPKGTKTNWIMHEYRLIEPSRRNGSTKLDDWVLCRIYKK

Another assay concerns the target T2, GST-ANAC055(1-171) (UniProt Q9LDY8).
T2 sequence: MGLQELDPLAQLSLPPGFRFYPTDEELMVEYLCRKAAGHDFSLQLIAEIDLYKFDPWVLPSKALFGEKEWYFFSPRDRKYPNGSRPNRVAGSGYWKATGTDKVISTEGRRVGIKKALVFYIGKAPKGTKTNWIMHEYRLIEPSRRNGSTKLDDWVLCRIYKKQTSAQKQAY

Assay [1] has as its target T3, GST-ANAC092(1-285) full length (UniProt Q9FKA0).
T3 sequence: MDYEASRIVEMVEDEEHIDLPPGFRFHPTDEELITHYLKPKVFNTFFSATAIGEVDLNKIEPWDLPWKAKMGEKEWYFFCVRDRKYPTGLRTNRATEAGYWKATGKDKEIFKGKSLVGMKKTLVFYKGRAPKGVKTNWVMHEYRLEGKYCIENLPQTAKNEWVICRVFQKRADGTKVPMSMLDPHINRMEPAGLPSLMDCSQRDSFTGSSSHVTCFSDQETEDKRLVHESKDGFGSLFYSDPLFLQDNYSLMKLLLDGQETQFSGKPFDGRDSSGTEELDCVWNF

Another assay deals with T4, GST-NAP(1-166) (UniProt O49255).
T4 sequence: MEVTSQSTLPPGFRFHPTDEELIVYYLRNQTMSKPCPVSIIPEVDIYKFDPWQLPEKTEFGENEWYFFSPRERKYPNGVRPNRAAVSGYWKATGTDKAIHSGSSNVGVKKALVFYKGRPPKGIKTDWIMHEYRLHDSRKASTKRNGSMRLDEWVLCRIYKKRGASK

The next assay deals with T5, GST-NTL8 NAC domain (UniProt Q9XIN7).
T5 sequence: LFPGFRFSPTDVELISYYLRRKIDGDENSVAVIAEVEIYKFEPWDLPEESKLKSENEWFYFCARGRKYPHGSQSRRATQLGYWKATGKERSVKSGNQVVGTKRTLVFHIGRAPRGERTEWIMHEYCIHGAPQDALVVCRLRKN

Another assay deals with T6, GST-SND1(1-203) (UniProt Q9LPI7).
T6 sequence: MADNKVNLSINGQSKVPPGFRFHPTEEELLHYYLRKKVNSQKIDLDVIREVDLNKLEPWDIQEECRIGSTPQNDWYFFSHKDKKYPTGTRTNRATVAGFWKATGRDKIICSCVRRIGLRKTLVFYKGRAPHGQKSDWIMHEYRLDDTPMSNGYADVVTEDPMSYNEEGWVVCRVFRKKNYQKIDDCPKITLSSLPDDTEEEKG

Assay [2] concerns the target T7, GST-VOZ2 (Arabidopsis thaliana) (UniProt Q9SLB9).
T7 sequence: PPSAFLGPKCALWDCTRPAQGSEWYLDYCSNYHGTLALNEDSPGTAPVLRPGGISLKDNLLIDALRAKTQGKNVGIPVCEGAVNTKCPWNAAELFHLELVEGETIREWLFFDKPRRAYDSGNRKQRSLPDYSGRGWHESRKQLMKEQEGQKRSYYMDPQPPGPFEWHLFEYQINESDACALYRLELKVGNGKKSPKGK

A further assay concerns the target T8, GST-ANAC092(1-176) (UniProt Q9FKA0).
T8 sequence: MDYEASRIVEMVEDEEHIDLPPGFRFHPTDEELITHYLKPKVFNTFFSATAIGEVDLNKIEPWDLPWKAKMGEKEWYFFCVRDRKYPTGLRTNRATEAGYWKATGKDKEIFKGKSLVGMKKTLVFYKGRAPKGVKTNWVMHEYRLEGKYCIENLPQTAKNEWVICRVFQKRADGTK

A further assay concerns the target T9, GST-VND3 NAC domain (UniProt Q9FH59).
T9 sequence: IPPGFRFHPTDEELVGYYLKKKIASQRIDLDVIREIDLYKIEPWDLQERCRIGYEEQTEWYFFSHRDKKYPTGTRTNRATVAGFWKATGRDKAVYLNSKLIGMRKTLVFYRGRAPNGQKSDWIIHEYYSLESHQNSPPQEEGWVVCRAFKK

The target in the next assay is T10, GST-VND7 NAC domain (UniProt Q9C8W9).
T10 sequence: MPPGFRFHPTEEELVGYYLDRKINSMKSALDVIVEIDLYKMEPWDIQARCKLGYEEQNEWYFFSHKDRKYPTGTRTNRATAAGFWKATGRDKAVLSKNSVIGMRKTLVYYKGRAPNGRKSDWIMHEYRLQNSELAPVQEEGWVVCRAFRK

The next assay deals with GST-WRKY1(266-371) (UniProt Q9SI37).
For the next assay, the target named is T11, GST-ATAF1 NAC domain (UniProt Q39013).
T11 sequence: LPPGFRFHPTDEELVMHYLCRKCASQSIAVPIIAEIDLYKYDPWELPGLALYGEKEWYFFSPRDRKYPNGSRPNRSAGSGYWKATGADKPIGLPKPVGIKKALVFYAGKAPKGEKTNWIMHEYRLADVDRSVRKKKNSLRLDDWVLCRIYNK

A further assay addresses T12, GST-NST2(1-184) (UniProt Q9M274).
T12 sequence: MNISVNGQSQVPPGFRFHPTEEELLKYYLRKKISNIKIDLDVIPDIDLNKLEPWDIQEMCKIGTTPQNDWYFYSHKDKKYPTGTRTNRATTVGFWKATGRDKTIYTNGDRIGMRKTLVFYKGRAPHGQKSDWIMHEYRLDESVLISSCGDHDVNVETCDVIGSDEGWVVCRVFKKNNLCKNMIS

UniProt Q9SCK6, sequence (Q9SCK6 1-168): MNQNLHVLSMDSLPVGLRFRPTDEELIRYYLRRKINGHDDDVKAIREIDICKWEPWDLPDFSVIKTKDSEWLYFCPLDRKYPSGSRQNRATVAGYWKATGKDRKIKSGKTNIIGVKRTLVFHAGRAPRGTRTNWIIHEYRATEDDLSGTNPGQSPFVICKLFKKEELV

Take TAGAGTAA: the binding signal was 0.0406 E-score in the assay with GST-NTL6(1-168); -0.0715 E-score with GST-ANAC019 NAC domain; 0.0921 E-score with GST-ANAC055(1-171); 0.263 E-score in assay [1]; -0.054 E-score with GST-NAP(1-166); 0.065 E-score with GST-NTL8 NAC domain. The binding signal is 0.401 E-score with GST-SND1(1-203) and -0.0401 E-score in assay [2].

In the case of ACGCTACC, the binding signal with GST-ANAC092(1-176) was 0.455 E-score; with GST-NTL6(1-168) it was -0.0179 E-score; in the assay with GST-ANAC019 NAC domain, 0.118 E-score; with GST-ANAC055(1-171), 0.0295 E-score; with GST-NAP(1-166) it was 0.0969 E-score; in the assay with GST-NTL8 NAC domain it was -0.0173 E-score. Besides, the binding signal is 0.0872 E-score with GST-VND3 NAC domain, 0.181 E-score with GST-VND7 NAC domain, 0.188 E-score in [2] and -0.0865 E-score with GST-WRKY1(266-371).

For the sequence CTGACTTC, the binding signal in the assay with GST-ANAC092(1-176) is -0.0317 E-score; with GST-NTL6(1-168) it was 0.0065 E-score; in the assay with GST-ANAC055(1-171), -0.163 E-score; with GST-ATAF1 NAC domain it was -0.0737 E-score; in assay [1], -0.2 E-score; in the assay with GST-NAP(1-166), -0.0175 E-score. In addition, the binding signal is -0.0152 E-score with GST-NST2(1-184); -0.124 E-score in the assay with GST-VND3 NAC domain; 0.00865 E-score in the assay with GST-VND7 NAC domain; 0.0241 E-score in assay [2]; 0.412 E-score in the assay with GST-WRKY1(266-371).

In the case of GCTTTCCC, the binding signal with GST-ANAC092(1-176) is 0.124 E-score; with GST-ANAC055(1-171), -0.0233 E-score; with GST-ATAF1 NAC domain it was -0.131 E-score; with GST-NAP(1-166), -0.0554 E-score; with GST-NST2(1-184), -0.0421 E-score; with GST-NTL8 NAC domain, 0.423 E-score. For the same sequence, the binding signal is -0.0491 E-score with GST-VND3 NAC domain, 0.0285 E-score with GST-VND7 NAC domain, 0.0575 E-score in assay [2] and -0.186 E-score with GST-WRKY1(266-371).

Regarding ATTACGCA, the binding signal was -0.0222 E-score in the assay with GST-NTL6(1-168); 0.168 E-score with GST-ANAC019 NAC domain; -0.0281 E-score in the assay with GST-NTL8 NAC domain; 0.265 E-score with GST-VND3 NAC domain; 0.253 E-score with GST-VND7 NAC domain; 0.169 E-score in assay [2]. The sequence also yielded a binding signal with GST-WRKY1(266-371) of -0.084 E-score.

On to GCACTCAA, for which the binding signal with GST-NTL6(1-168) is -0.106 E-score; in the assay with GST-ANAC019 NAC domain, 0.0452 E-score; with GST-ANAC055(1-171), -0.0324 E-score; with GST-NAP(1-166) it was -0.0648 E-score; with GST-NST2(1-184) it was 0.196 E-score; with GST-NTL8 NAC domain, 0.0643 E-score. Moreover, the binding signal with GST-VND3 NAC domain was 0.00687 E-score; with GST-VND7 NAC domain it was -0.0161 E-score; in assay [2] it was -0.0113 E-score; in the assay with GST-WRKY1(266-371), -0.203 E-score.

For the sequence AAGCACGC, the binding signal in the assay with GST-ANAC092(1-176) was 0.32 E-score; with GST-NTL6(1-168), 0.0272 E-score; with GST-ANAC055(1-171) it was 0.0401 E-score; with GST-NTL8 NAC domain, -0.00597 E-score; with GST-VND3 NAC domain, -0.0287 E-score; in the assay with GST-VND7 NAC domain, 0.0817 E-score. The binding signal in assay [2] is -0.0114 E-score; in the assay with GST-WRKY1(266-371), -0.183 E-score.
